Experimental data from PubChem BioAssay (NCATS).
This is one part of the list. Shown are side measurements of this screen, not its main read-out; they come without a call. Potencies come from curve fits of mixed quality, noted in brackets.

Assay: qHTS drug screen for cell cycle checkpoint inhibitors in PARPi-resistant BRCA-mutant ovarian cancer cell lines. (AID 1963452)
Conditions: PEO1/OlaR viability, CellTiter-Glo luminescence, 96 h
Outline: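 PEO1, PEO4 and PEO1/OlaR ovarian cancer cells, 600 per well, exposed 96 h at 37C to a dilution series. Viability read by CellTiter-Glo luminescence, normalized to DMSO and empty wells; activity summarized as Z-AUC.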

[1] = measured here: PEO1 parental viability
Tags tell the direction and shape of the fitted curve.

Row | Compound | AC50 [1] | AC50 (measured here: PEO4 viability)
1 | COc1cc2c(cc1O)CCN[C@]21CS[C@@H]2c3c(OC(C)=O)c(C)c4c(c3[C@H](COC1=O)N1[C@@H]2[C@H]2c3c(cc(C)c(OC)c3O)C[C@@H]([C@@H]1O)N2C)OCO4 | 8.9 nM [falling, full curve] | 17.8 nM [falling, full curve]
2 | CCCn1c(=O)c2[nH]c(-c3cnn(Cc4cccc(C(F)(F)F)c4)c3)nc2n(CC)c1=O | 2450 nM [rising, partial curve, poor fit] | 3.5 nM [rising, single point]
3 | COc1nnc2ccc(N3CCC(c4ccc(OCCN5CCN(C)C(=O)[C@H]5C)cc4)CC3)nn12 | 245 nM [falling, full curve] | 138 nM [falling, full curve]
4 | COc1cc2c3c(n(CCCn4ccnc4)c(=O)c2cc1OC)-c1cc2c(cc1C3=O)OCO2 | 4.4 nM [falling, full curve] | 1550 nM [falling, partial curve, poor fit]
5 | Cc1nc2c(-c3cnc(N)nc3)nc(N3CCOCC3)nc2n1C(C)C | 1230 nM [falling, full curve] | 1100 nM [falling, full curve]
